According to paper PMC10997794, “Seeding the meiotic DNA break machinery and initiating recombination on chromosome axes” (Nature Communications, 2024):
Numbering of substitutions follows the chain as printed. Names may count otherwise. These are yes or no findings as the source states them, for the method shown. For part of these data: Binding seen in cells or lysates may run through a third protein. Some results given as binding are weak or reduced against the parent protein; the word gives no strength. For part of these data: Where a sequence is shown, tags or fusion partners need not be part of it.

T1: DBF4, yeast two-hybrid fusion (mouse) (UniProt Q9QZ41)
T1 sequence: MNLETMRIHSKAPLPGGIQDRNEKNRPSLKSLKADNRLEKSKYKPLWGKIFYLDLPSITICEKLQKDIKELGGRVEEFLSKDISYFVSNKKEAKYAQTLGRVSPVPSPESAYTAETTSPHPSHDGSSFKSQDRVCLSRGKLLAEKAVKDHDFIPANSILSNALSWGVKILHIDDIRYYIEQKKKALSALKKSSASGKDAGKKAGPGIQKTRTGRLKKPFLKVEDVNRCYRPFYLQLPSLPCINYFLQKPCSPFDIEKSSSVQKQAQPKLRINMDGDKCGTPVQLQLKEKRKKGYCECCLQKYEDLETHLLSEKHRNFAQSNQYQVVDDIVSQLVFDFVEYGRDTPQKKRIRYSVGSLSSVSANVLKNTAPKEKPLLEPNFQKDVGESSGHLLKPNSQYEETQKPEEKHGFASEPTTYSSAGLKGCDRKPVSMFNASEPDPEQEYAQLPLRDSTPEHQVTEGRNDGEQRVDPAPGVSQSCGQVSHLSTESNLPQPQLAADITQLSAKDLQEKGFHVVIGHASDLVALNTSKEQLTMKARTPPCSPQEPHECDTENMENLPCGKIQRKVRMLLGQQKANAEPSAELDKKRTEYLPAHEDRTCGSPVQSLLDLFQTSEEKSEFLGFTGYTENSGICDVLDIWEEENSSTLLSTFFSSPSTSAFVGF

T2: HORMAD1, yeast two-hybrid fusion (mouse) (UniProt Q9D5T7)
T2 sequence: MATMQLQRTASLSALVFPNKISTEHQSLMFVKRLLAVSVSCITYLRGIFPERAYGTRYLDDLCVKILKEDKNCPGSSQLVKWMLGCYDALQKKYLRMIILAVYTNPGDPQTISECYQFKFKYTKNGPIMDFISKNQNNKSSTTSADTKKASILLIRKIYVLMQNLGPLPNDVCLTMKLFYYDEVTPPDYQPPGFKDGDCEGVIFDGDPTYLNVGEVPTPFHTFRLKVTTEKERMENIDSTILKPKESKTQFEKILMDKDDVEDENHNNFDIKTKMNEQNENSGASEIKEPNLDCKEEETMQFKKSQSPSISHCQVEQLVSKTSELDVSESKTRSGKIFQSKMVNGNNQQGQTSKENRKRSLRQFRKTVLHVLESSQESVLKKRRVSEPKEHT

T3: IHO1_C7Δ, endogenous in testis extracts of Iho1^C7Δ/C7Δ mice (mouse (endogenous in testis)) (UniProt Q6PDM4)
T3 sequence: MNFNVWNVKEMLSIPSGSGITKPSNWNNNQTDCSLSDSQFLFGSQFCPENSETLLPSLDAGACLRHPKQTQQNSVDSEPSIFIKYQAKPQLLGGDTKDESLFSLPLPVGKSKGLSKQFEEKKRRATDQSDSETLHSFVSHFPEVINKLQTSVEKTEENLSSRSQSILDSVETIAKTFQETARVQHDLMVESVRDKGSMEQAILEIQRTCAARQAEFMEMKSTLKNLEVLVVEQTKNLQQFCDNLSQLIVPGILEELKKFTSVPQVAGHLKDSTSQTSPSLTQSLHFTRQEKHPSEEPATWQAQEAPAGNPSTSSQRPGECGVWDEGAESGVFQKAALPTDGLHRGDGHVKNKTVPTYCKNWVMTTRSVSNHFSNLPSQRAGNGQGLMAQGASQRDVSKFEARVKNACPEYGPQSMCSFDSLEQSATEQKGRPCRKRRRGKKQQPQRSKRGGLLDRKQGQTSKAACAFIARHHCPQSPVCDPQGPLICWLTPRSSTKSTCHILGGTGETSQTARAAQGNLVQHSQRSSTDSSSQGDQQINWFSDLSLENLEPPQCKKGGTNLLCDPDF

T4: IHO1, endogenous wild type in mouse testis extracts (mouse (endogenous in testis)) (UniProt Q6PDM4)
T4 sequence: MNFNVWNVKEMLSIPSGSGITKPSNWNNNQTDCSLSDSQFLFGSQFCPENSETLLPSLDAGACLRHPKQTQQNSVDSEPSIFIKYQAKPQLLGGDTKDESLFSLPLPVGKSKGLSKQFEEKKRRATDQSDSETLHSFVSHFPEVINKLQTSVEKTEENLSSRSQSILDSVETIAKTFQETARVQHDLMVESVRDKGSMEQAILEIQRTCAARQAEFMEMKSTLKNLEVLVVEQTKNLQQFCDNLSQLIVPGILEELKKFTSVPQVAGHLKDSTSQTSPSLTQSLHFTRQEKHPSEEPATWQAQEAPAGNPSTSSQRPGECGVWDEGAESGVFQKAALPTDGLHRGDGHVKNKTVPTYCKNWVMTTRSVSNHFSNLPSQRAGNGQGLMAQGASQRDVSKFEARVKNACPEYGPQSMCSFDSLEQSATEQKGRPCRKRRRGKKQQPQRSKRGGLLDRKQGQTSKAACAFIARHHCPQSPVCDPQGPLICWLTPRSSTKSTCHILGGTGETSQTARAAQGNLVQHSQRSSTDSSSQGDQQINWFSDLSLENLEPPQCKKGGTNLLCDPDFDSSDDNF

B1: IHO1, wild type (1-574), yeast two-hybrid fusion (protein, UniProt Q6PDM4 1-574)
chain: T4 sequence
B2: REC114, endogenous in mouse testis extracts (protein, UniProt Q9CWH4 1-259)
chain: MSEAGNVASGLGLPGEVSQWSLKRYGRFMLLDNVGSPGPSSEAAAAGSPTWKVFESSEESGSLVLTIVVSGHFFISQGQTLLEGFSLIGSKNWLKIVRRMDCLLFGTTIKNKSRMFRVQFSGESKEEALERCCGCVQTLAQYVTVQEPDSTTQELQQSQGPREAGESQGKDPLQQGPSLTLEQHVCMAAGAGVLQERTSVTHRAQSILAPEKLTLAYEGSSWGTEELGPFLRLCLMDQNFPAFVEEVEKELKKITGLRN
B3: IHO1 S476A T490A, yeast two-hybrid fusion (protein, UniProt Q6PDM4 1-574)
chain: T4 sequence with S476A, T490A
B4: IHO1 without the first 358 amino acids, yeast two-hybrid fusion (domain or fragment, UniProt Q6PDM4 359-574)
chain: KNWVMTTRSVSNHFSNLPSQRAGNGQGLMAQGASQRDVSKFEARVKNACPEYGPQSMCSFDSLEQSATEQKGRPCRKRRRGKKQQPQRSKRGGLLDRKQGQTSKAACAFIARHHCPQSPVCDPQGPLICWLTPRSSTKSTCHILGGTGETSQTARAAQGNLVQHSQRSSTDSSSQGDQQINWFSDLSLENLEPPQCKKGGTNLLCDPDFDSSDDNF
B5: IHO1, first 358 amino acids, yeast two-hybrid fusion (domain or fragment, UniProt Q6PDM4 1-358)
chain: MNFNVWNVKEMLSIPSGSGITKPSNWNNNQTDCSLSDSQFLFGSQFCPENSETLLPSLDAGACLRHPKQTQQNSVDSEPSIFIKYQAKPQLLGGDTKDESLFSLPLPVGKSKGLSKQFEEKKRRATDQSDSETLHSFVSHFPEVINKLQTSVEKTEENLSSRSQSILDSVETIAKTFQETARVQHDLMVESVRDKGSMEQAILEIQRTCAARQAEFMEMKSTLKNLEVLVVEQTKNLQQFCDNLSQLIVPGILEELKKFTSVPQVAGHLKDSTSQTSPSLTQSLHFTRQEKHPSEEPATWQAQEAPAGNPSTSSQRPGECGVWDEGAESGVFQKAALPTDGLHRGDGHVKNKTVPTYC
B6: IHO1 S569A S570A, yeast two-hybrid fusion (protein, UniProt Q6PDM4 1-574)
chain: T4 sequence with S569A, S570A
B7: SYCP3, endogenous in mouse testis extracts (protein, UniProt P70281 1-254)
chain: MLRGCGDSDSSPEPLSKHLKMVPGGRKHSGKSGKPPLVDQPKKAFDFEKDDKDLSGSEEDVADEKAPVIDKHGKKRSAGIIEDVGGEVQNMLEKFGADINKALLAKRKRIEMYTKASFKASNQKIEQIWKTQQEEIQKLNNEYSQQFMNVLQQWELDIQKFEEQGEKLSNLFRQQQKIFQQSRIVQSQRMFAMKQIHEQFIKSLEDVEKNNDNLFTGTQSELKKEMAMLQKKVMMETQQQEMANVRKSLQSMLF

Legend:
[1] = target: T1, DBF4, yeast two-hybrid fusion (mouse); experiment: two-hybrid; mouse proteins as bait and prey co-transformed into Y2HGold yeast; growth on -Leu -Trp -Ade -His plates for 2-7 days
[2] = target: T2, HORMAD1, yeast two-hybrid fusion (mouse); experiment: as above
[3] = target: T3, IHO1_C7Δ, endogenous in testis extracts of Iho1^C7Δ/C7Δ mice (mouse (endogenous in testis)); experiment: co-IP; anti-IHO1 or anti-HORMAD1 antibodies cross-linked to Protein A Dynabeads; benzonase-treated total testis lysates of 13 dpp wild-type or Iho1^C7Δ/C7Δ mice; 500 mM NaCl, 1% Triton X-100, 1% NP40, 0.5% NaDOC; overnight at 4 °C; immunoblot
[4] = target: T4, IHO1, endogenous wild type in mouse testis extracts (mouse (endogenous in testis)); experiment: as above

| Binder | binding [2] | other results |
| --- | --- | --- |
| B1 | binds | binding [1]: binds |
| B2 |  | binding [3]: binds; binding [4]: binds |
| B3 | binds |  |
| B4 | binds |  |
| B5 | no binding |  |
| B6 | no binding |  |
| B7 |  | binding [3]: no binding |
